Consider 54 compounds from ChEMBL document CHEMBL4888484, “Replenishing the malaria drug discovery pipeline: Screening and hit evaluation of the MMV Hit Generation Library 1 (HGL1) against asexual blood stage Plasmodium falciparum ,using a nano luciferase reporter read-out” (2022).

About 540 (0.36%) of roughly 150,000 compounds showed an effect of 50% or more. This is one part of the list.

For this assay, the system named is Plasmodium falciparum. Description: Primary screen in NF54 nanoGlo assay, in single point, at 2uM, 72h; a lower Z score goes with more inhibition. It counts as functional, Erythrocyte. As to conditions: timepoint 72 hour.
With `COC(=O)c1cc(S(=O)(=O)N2CCC[C@H]2C(=O)Nc2cccc(C)n2)cn1C`, the “% Inhibition” value is -6% and the Z score is on record as 1.14.
Taken in the same sequence, the figures for `Cc1ccn(Cc2cc(C)on2)c(=O)c1` were -10% and 1.53.
In the same order, the values of `Cc1ccc(NC2=NC(N)=NC3(CCCCC3)N2)cc1` are 0% and 0.06.
As for `CCOC(=O)c1ccc(NC(=O)CNC(=O)CCC(C)C)c(O)c1`, the “% Inhibition” value is given as -9% and the Z score was 1.76.
Turning to `Fc1ccc(CCN[C@H]2CCc3ncnn3C2)cc1F`, the “% Inhibition” value is -11% and the Z score amounted to 1.52.
Take `CC(C)CCNC(=O)[C@H](C1CCCC1)N1CCN(C(=O)c2ccc(C(F)(F)F)cc2)CC1`: the “% Inhibition” value was determined as 6% and the Z score is reported as -0.54.
Taken in the same sequence, the figures for `Cc1ccc(-n2c(C)nn(Cc3ccccc3)c2=O)cc1` were 30% and -3.91.
For `CCCCN(CCc1nc(-c2ccc(N(C)C)cc2)no1)C(=O)CC(C)C`, the “% Inhibition” value is given as -2% and the Z score is recorded as 0.33.
Regarding `CCn1nc(C(=O)Nc2cccc(OCc3cccc(F)c3)c2)ccc1=O`, the “% Inhibition” value worked out at 5% and the Z score is recorded as -0.75.
In the same order, the values of `Cc1cc(C)cc(NC(=O)CC(C)C)c1` are 1% and -0.13.
As for `Cc1ccsc1C(=O)N1CC(Oc2ccccc2-c2nc(-c3cnccn3)no2)C1`, the “% Inhibition” value is -31% and the Z score is on record as 3.51.
For the compound `CC1CC(C(=O)N2CCN(C(=O)c3ccco3)CC2)CC(=O)N1` (stereo not drawn), the “% Inhibition” value is listed as 4% and the Z score is given as -0.48.
Taken in the same sequence, the figures for `CCC(=O)Nc1ccccc1-c1nc2ccccc2n(CCOc2ccc(F)cc2)c1=O` were -8% and 1.54.
For the compound `O=C(NC1CCOC2(CCC2)C1)c1cn(C2CCOC2)nn1` (stereo not drawn), the “% Inhibition” value turned out to be 5% and the Z score is -0.59.
On to `CCN(CC(=O)Nc1ccc2c(c1)OCCO2)C(=O)c1sccc1C`, for which the “% Inhibition” value is reported as -11% and the Z score is reported as 1.02.
`COC[C@@H]1CC(F)(F)CN1C1CCN(C(=O)c2cc(C)no2)CC1`: the “% Inhibition” value is recorded as -10% and the Z score turned out to be 1.96.
Take `Cc1cc(C(=O)Nc2[nH]ncc2-c2ccccc2Br)no1`: the “% Inhibition” value is given as -6% and the Z score came out at 0.62.
Take `Cc1[nH]c2c(F)cc(F)cc2c1CCNC(=O)Cn1cc(N)cn1`: the “% Inhibition” value is listed as 4% and the Z score is given as -0.51.
In the same order, the values of `Cn1c(=O)c2ncn(CC(=O)Nc3ccc(C(=O)NC4CCCCC4)cc3)c2n(C)c1=O` are 30% and -3.92.
Consider `Cc1nn(-c2ccc(C(C)(C)C)cc2)c(C)c1[C@@H]1C=C[C@@H](NC(=O)Nc2ccccc2)C1`, for which the “% Inhibition” value came out at 2% and the Z score is -0.33.
Consider `CC[C@H](C)Nc1cnc2c(c1)c(NC(=O)C1CCC1)c(C(=O)OC)n2CCc1ccccn1`, for which the “% Inhibition” value is reported as 12% and the Z score is reported as -1.59.
Take `Cc1ccccc1[C@H](C)N1CCC2(CC1)COCCO2`: the “% Inhibition” value was -8% and the Z score is 1.07.
Turning to `Cc1noc(C)c1CN1CCC[C@H](c2cc(C(N)=O)[nH]n2)C1`, the “% Inhibition” value was found to be 16% and the Z score is -1.79.
Taken in the same sequence, the figures for `CC1CN(C)CC(C)N1C(=O)c1ccnc(C#N)c1` (stereo not drawn) were -9% and 1.44.
As for `Cc1cccc(S(=O)(=O)N2CCOC[C@@]23CCOC3)c1F`, the “% Inhibition” value is recorded as -7% and the Z score was determined as 1.
Consider `CC(C)c1cc(C(=O)NCc2nnc(C(C)C)n2C)no1`, for which the “% Inhibition” value is listed as 7% and the Z score is recorded as -0.76.
For `CCN(CCC(=O)NCCCOC)C(=O)c1ccoc1`, the “% Inhibition” value is listed as -13% and the Z score is on record as 1.31.
In the same order, the values of `CN(C)Cc1csc(CNC(=O)Nc2cnn3ccccc23)n1` are -6% and 0.66.
`CN(C(=O)CN1CCn2nc(Cc3ccccc3)cc2C1)c1ccccc1`: the “% Inhibition” value was found to be 0% and the Z score came to 0.07.
In the same order, the values of `C[C@@H]1Oc2ccc(Br)cc2CN(C2CC2)C1=O` are 4% and -0.42.
`O=C(Nc1ccc2[nH]ccc2c1)c1c[nH]c2cccnc12`: the “% Inhibition” value is 2% and the Z score is listed as -0.32.
As to `CC(C)c1cc(CN(C)C(=O)[C@@H]2CCC(=O)NC(=O)N2)on1`, the “% Inhibition” value was found to be 6% and the Z score is listed as -1.24.
For `COC[C@@H](c1ccnn1C)n1cc(-c2ccc3c(c2)OCCO3)nn1`, the “% Inhibition” value was -10% and the Z score is on record as 1.56.
In the case of `O=C(c1cc(=O)[nH]c2ccccc12)N1C[C@@H]2C[C@H]1CN2Cc1ccccc1`, the “% Inhibition” value is given as -7% and the Z score was found to be 1.08.
For `O=C(NC1CCC(O)CC1)N[C@@H](Cc1ccccc1)c1cccs1` (stereo partly drawn), the “% Inhibition” value was -13% and the Z score is reported as 1.95.
As to `Cc1nn(-c2cccc(F)c2)c(N2CCN(C)CC2)c1CN(CCC(C)C)C(=O)COCc1ccccc1`, the “% Inhibition” value is listed as 9% and the Z score is -0.76.
Taken in the same sequence, the figures for `Cc1n[nH]c([C@@H]2CN(Cc3c(C)noc3C)CCO2)n1` were -6% and 0.56.
As for `COc1cc(C)sc1C(=O)NCC[C@H]1CCCO1`, the “% Inhibition” value was -1% and the Z score was 0.13.
`Cc1ccc(CN2c3ccc(F)cc3OC[C@@H]2CC(=O)Nc2ccc(C)c(C)c2)cc1`: the “% Inhibition” value was -2% and the Z score came to 0.34.
With `O=C(NCc1ccc(F)cc1)c1noc(Cc2ccccc2)n1`, the “% Inhibition” value is recorded as -12% and the Z score was 1.45.
In the same order, the values of `CC(=O)N1C(=O)C[C@H](C)N(C(C)=O)c2ccccc21` are -10% and 1.11.
Consider `FC(F)Oc1cncc(-c2cnc(C3CCOCC3)o2)c1`, for which the “% Inhibition” value is 2% and the Z score was -0.43.
Turning to `Cc1ccc(Cl)cc1C(=O)N1C[C@@H](CN2CCCN(C)CC2)[C@@H](CO)C1`, the “% Inhibition” value is given as -2% and the Z score is on record as 0.18.
As for `Cc1cccc2c1[C@H](NC(=O)C(C)(C)NC(=O)c1cccs1)C(=O)N2`, the “% Inhibition” value was found to be 9% and the Z score was -1.05.
As to `Cn1cccc1C(=O)N[C@@H](Cc1ccccc1)C(=O)N1CCCOCCNC(=O)CC1`, the “% Inhibition” value is -16% and the Z score turned out to be 2.05.
In the same order, the values of `O=C(Nc1cnccn1)c1cc(-c2cccc(Br)c2)nc2c(Cl)cccc12` are 6% and -0.81.
As for `CCOCCCNC(=O)N1C[C@H](c2nc(C)no2)C2(CCOCC2)C1`, the “% Inhibition” value is listed as -4% and the Z score amounted to 0.83.
In the same order, the values of `N[C@H]1CCN2C(=O)c3cc(-c4ccc(F)cc4F)ccc3NC(=O)[C@@H]2C1` are 29% and -3.28.
Turning to `Cc1nc(NC(=O)[C@@H]2CC(c3ccc(Cl)cc3Cl)=NO2)n[nH]1`, the “% Inhibition” value is -3% and the Z score is given as 0.43.
For the compound `CCCn1ncnc1COc1ccc(Br)cc1F`, the “% Inhibition” value is reported as -30% and the Z score is given as 3.5.
For the compound `CC(C)(O)Cn1ncnc1-c1cccn1C1CC1`, the “% Inhibition” value was -5% and the Z score amounted to 0.74.
Take `CCOC(C)(C)C(=O)NCCc1nccn1C`: the “% Inhibition” value is on record as 4% and the Z score is given as -0.88.
On to `Cc1ccc(-c2nocc2CCC(=O)O)cc1`, for which the “% Inhibition” value was -33% and the Z score was 2.89.
Regarding `Cc1nc(C)c(C(=O)N2CC3(C[C@H](N4CCN(C)CC4)CO3)C2)s1`, the “% Inhibition” value was -10% and the Z score is 1.54.
